Reference: the supplement of paper PMC3334620
Over roughly 33,000 sequences, “E-score (-0.5 to 0.5)” has its median near -0.011; the highest 2% begin near 0.28. This is one part of the list.

target: T1, Gcr1 (UniProt P07261); test: PBM E-score (8-mer binding enrichment) (E-score (-0.5 to 0.5)); higher = stronger / more preferred TF binding; most listed sequences are background and not binding sites; conditions: protein concentration: 100 nM; construct: GST-full length
T1 sequence: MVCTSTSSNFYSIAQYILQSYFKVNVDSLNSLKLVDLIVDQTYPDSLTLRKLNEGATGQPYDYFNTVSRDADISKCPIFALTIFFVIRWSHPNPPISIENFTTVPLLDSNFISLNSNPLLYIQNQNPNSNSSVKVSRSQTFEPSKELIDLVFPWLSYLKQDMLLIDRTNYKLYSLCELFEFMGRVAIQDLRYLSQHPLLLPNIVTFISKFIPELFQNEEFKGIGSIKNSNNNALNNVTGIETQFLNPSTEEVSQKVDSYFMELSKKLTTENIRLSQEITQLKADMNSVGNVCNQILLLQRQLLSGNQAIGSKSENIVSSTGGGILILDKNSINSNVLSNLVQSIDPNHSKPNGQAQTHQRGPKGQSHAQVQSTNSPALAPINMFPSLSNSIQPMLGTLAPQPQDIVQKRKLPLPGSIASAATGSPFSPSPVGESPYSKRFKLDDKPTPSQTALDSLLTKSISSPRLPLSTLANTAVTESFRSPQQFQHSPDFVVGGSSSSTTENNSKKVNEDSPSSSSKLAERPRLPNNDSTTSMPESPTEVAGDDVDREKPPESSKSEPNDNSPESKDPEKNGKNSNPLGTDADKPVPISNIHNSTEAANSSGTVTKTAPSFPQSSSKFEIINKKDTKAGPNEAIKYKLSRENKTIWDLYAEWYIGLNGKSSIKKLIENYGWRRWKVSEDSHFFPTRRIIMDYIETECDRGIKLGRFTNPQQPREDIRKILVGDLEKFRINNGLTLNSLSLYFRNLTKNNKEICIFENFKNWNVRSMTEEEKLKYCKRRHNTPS
Procedure, shortened: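 For each ungapped eight-base word taken together with its reverse complement, the Universal PBM Analysis Suite assigned an E-score. Binding data came from GST-tagged yeast transcription factors, applied at about 100-200 nM, on universal all-10-mer Agilent arrays made double-stranded by primer extension. Fluorescent anti-GST marked bound protein, and scans were normalised with masliner.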

Sequence | PBM E-score
ATGTAGTA | 0.156
GCACTGAA | -0.00389
TAAGTCTA | -0.0984
ACGGGATC | 0.21
TCCACCCA | 0.0516
GAGAGTCA | -0.128
TGTGAGAA | -0.0342
CACGTAAC | -0.161
GCCGCTAC | 0.118
AGTATGTG | -0.0667
GAACGGCA | -0.106
CAGCACGA | -0.114
GTTAAATA | 0.0652
ACCATCAT | -0.129
ATGAGCTA | -0.0104
AAGCTGTG | 0.0238
GGGATTTA | 0.0417
ATGTACAA | -0.14
ACGGTACC | -0.0315
TAACCAGA | 0.139
ACTGCCAT | 0.0395
CGCTCCTC | -0.226
CTATGCAA | -0.1
CTCCAGTA | 0.214
ACAATATA | -0.0662

Sequence | PBM E-score
CGTACCCC | -0.202
ACAAAGAT | -0.106
AGGCTGTA | -0.114
ATCCTCTC | 0.0674
GGGAGGCA | -0.029
GTCGCAAA | -0.0286
GCACATCC | -0.182
AGTCATAC | -0.047
ACCCTACG | -0.14
ACCGGGAT | 0.191
CGTTCCGA | 0.14
CGACCAGC | -0.218
GAGTCACA | -0.0486
ACATGGAA | 0.128
ACACCGGT | -0.0348
CCACAACA | 0.138
CTAGGCAG | 0.027
AATTCCTA | 0.0723
ACATTATC | 0.0205
AGTGGGGA | 0.0734
AAGCTCTC | -0.203
TTCCCGAA | 0.205
TCCTACGA | -0.122
ATGTCTCA | -0.167
CCCGTATA | 0.116

Sequence | PBM E-score
AAATTGAC | 0.0927
CCTTTTAG | 0.15
ATATATAA | 0.12
ACGCTATA | 0.107
AGTTACTC | -0.119
ATATTTTG | -0.0728
ACTGTGTA | 0.108
CATAGGGA | 0.0429
CCCCCTCA | -0.245
CTCTAAGC | -0.00427
GCTGTGTA | 0.0303
ACAAAGAC | -0.143
ATACAAAA | 0.127
ACACTTTC | 0.101
GCACGTAC | -0.0835
ACTCTGCT | -0.168
CCACACTC | 0.063
ATGCGAGC | 0.173
ACGTGGAT | -0.0577
ACCCCAAC | 0.0095
ACGCAGTG | -0.105
ACCTAGGC | -0.176
CATCAGTC | -0.298
CCGAATAG | 0.0276
ACGGCGCC | 0.312

Sequence | PBM E-score
GGATTGTA | -0.127
CAATGTTC | -0.0163
AGCATCCG | 0.372
ATGCTCTG | 0.121
CCTCTCGA | -0.22
AACGTGGG | -0.197
CATGCACA | -0.13
GCGCATGA | -0.104
ATCGCACA | -0.277
CTACGAAG | 0.0785
GGGACTTA | -0.171
ACCTACGT | -0.112
CAACCCTG | -0.0684
GCGCGGTA | 0.0713
AGGGATTG | 0.0467
GTCAGCCA | -0.113
ACACTACC | -0.139
AGTGCTAA | 0.082
TACCTCCA | -0.101
CGACAGGA | 0.185
AAGCTTAG | -0.0247
ACCGATCG | -0.182
AGTCATAT | -0.0105
CCTGTATA | 0.2
ACATTAAA | 0.00365

Sequence | PBM E-score
CCTATTTC | 0.0629
CGTACTCC | -0.134
GAGACGTA | -0.0782
TCTGAGCA | 0.0835
ACCCTATC | -0.0336
ATTTGGAG | 0.0526
CCACGTGA | -0.0287
ACAGCGAG | -0.112
AAAGTCTC | -0.151
GCAATTGC | -0.0766
TGATTTAA | 0.00884
GGGGCTAA | 0.0181
GGGTGCTA | 0.26
AACCTTAA | -0.0496
CAACAAGC | 0.00715
ATATAGGC | 0.187
ACCGAAAA | 0.18
GCAGCACC | 0.103
AGCGCGTC | 0.0937
ACACTAAA | 0.116
ACTTCCTA | 0.245
CGTTAGAA | -0.155
GCGAACCC | -0.0857
AGAAAACT | -0.0344
ACGTAAAT | 0.0369

Sequence | PBM E-score
AGAGACAC | -0.0221
ACGGACCC | -0.0859
GGCCGCAA | -0.215
CGAACGTA | -0.161
AATGTCGT | 0.216
CTGGGTCC | 0.0719
CCATGTCC | -0.14
CGGTGCTA | 0.208
CATCTAAC | 0.244
CATTGGAG | 0.0154
CAAACGCA | -0.0531
CATATTGA | -0.052
AGCCCGGA | -0.0472
CATCACGA | -0.0802
CTCTGTCC | -0.0795
AATGACAG | -0.154
GACTTGCC | -0.157
ACAAGAGA | -0.0683
ATACATTC | -0.178
CTAGGCAA | 0.00069
CGGGTGCA | 0.0724
GTAACTAA | 0.16
CCCCTGCA | -0.117
GACATCAC | -0.0799
CAGTGGGC | -0.0102

Sequence | PBM E-score
CAATGGCC | -0.192
AATGACTC | -0.0582
AGGGAAAG | -0.15
GAAGATAA | 0.0599
AACTTAAG | 0.0794
CAAGTCAG | -0.108
CGGTGGAA | 0.0286
CTTGGATC | 0.221
ACGCAACT | 0.186
CCCGATCG | -0.0246
ATCTGCGA | 0.0591
GACCGATA | -0.125
GAACTGCC | -0.0585
ATGGAGTC | 0.0937
AGACCAGA | 0.0754
AAGCGCAA | -0.103
GTAGCTAC | 0.184
AGCAGTAG | 0.00486
CCGCCTAG | -0.0452
AATGGTCC | 0.00758
CGCCTGAC | -0.00014
GTCGAGCA | 0.0187
